Laboratory results as given in ChEMBL document CHEMBL3232797, “Targeting Staphylococcus aureus quorum sensing with nonpeptidic small molecule inhibitors” (J Med Chem, 2014).
Calls of active or inactive are those of the source. The rule behind the calls is not given here.

Test system: Staphylococcus aureus
Experiment: Inhibition of alpha-hemolysin production in Staphylococcus aureus USA300 at 100 uM after 6 hrs by Western blot analysis

Structure (SMILES): CCCCCCC/C(O)=C1/C(=O)N[C@@H](CCO)C1=O
- inhibition: Active
